Where “and” joins values, the source holds several entries; their conditions need not be identical. Identical values can stand only once. Counter-ions that a name gives are not always drawn. ± gives the standard deviation of the averaged measurements. Over roughly 3,200 compounds, “nuclei count (viability) relative to DMSO” has its median near 99; the lowest 2% begin near 16. The list shows a part of the results.

This assay concerns U2OS. As to the kind of experiment: nuclei count (viability) relative to DMSO (% of DMSO); higher = more viable cells. Conditions: 10 µM; 24 h. As to the method:
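Primary image-based screen in U2OS cells: compounds at 10 uM for 24 h, then a 1 h o-propargyl-puromycin (OPP) pulse, click labelling, and high-throughput microscopy. Mean cytoplasmic OPP intensity and nuclei count were normalised to DMSO wells within each plate (DMSO = 100) and averaged over triplicate plates.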
Molecule `CN(C)CCOC(c1ccccc1)c1ccccc1` [Diphenhydramine hydrochloride] showed a nuclei count of 106.

Consider `NC(Cc1cc(I)c(Oc2cc(I)c(O)c(I)c2)c(I)c1)C(=O)O` (centres undefined) [Thyroxine (L)], for which the nuclei count turned out to be 105.

`OC(CN1CCC(Cc2ccc(F)cc2)CC1)c1ccc(Cl)cc1` (centres undefined) [Eliprodil]: the nuclei count is 103.

In turn, `CN(C)CC/C=C1/c2ccccc2Sc2ccc(Cl)cc21` [Chlorprothixene hydrochloride] had a nuclei count of 106.

On to `CCCS(=O)(=O)c1nc(NC2CC2)cc(-c2ccc3c(ccn3C3CC(C)(C)NC(C)(C)C3)c2)n1`, for which the nuclei count came to 8.4.

`Cn1cc(CNCC2CCN(c3ncc(C(=O)NO)cn3)CC2)c2ccccc21` registered a nuclei count of 18.9.

Consider `CC(=O)[C@H]1CC[C@H]2[C@@H]3CCC4=CC(=O)CC[C@]4(C)[C@H]3CC[C@]12C` [Progesterone], for which the nuclei count came to 101 ± 6.7.

`CC(=O)[C@H]1CC[C@H]2[C@@H]3CCC4=CC(=O)CC[C@]4(C)[C@H]3CC[C@]12C` [Progesterone (Prometrium)] gave a nuclei count of 108.

For the molecule `Nc1nc(F)nc2c1ncn2[C@@H]1O[C@H](CO)[C@@H](O)[C@@H]1O` [Fludarabine], the nuclei count was found to be 96.9 ± 8.

As for `Nc1nc(F)nc2c1ncn2[C@@H]1O[C@H](CO)[C@@H](O)[C@@H]1O` [Fludarabine (Fludara)], the nuclei count is 106.

For `CC[C@H]1OC(=O)[C@H](C)[C@@H](O[C@H]2C[C@@](C)(OC)[C@@H](O)[C@H](C)O2)[C@H](C)[C@@H](O[C@@H]2O[C@H](C)C[C@H](N(C)C)[C@H]2O)[C@](C)(O)C[C@@H](C)/C(=N\OCOCCOC)[C@H](C)[C@@H](O)[C@]1(C)O` [Roxithromycin], the nuclei count came out at 103.

Molecule `CC[C@H]1OC(=O)[C@H](C)[C@@H](O[C@H]2C[C@@](C)(OC)[C@@H](O)[C@H](C)O2)[C@H](C)[C@@H](O[C@@H]2O[C@H](C)C[C@H](N(C)C)[C@H]2O)[C@](C)(O)C[C@@H](C)/C(=N\OCOCCOC)[C@H](C)[C@@H](O)[C@]1(C)O` [Roxithromycin (Roxl-150)] returned a nuclei count of 102.

`O=C(NCCS(=O)(=O)c1ccc(C(F)(F)F)cn1)c1ccc(Cl)cc1`: the nuclei count is 105.

The molecule `CC(C)CC(=O)Nc1n[nH]c2c1CN(C(=O)C1CCN(C)CC1)C2(C)C` gave a nuclei count of 41.9.

Consider `C=C1CC[C@H](O)C/C1=C/C=C1\CCC[C@]2(C)[C@@H]([C@H](C)CCCC(C)(C)O)CC[C@@H]12` [25-Hydroxyvitamin D3], for which the nuclei count is 104.

Take `C=C1CC[C@H](O)C/C1=C/C=C1\CCC[C@]2(C)[C@@H]([C@H](C)CCCC(C)(C)O)CC[C@@H]12` [Calcifediol]: the nuclei count was 105.

In turn, `COc1ccc(NC(=O)c2cc(OCCCN(C)C)nn2Cc2ccccc2)cc1` [CFM 1571 hydrochloride] came in with a nuclei count of 99.

For the molecule `OC(c1ccccc1)C1CCN(CCc2ccccc2)CC1` (centres undefined), the nuclei count was 99.4.

Molecule `Nc1nc(=O)c2nc(CNc3ccc(C(=O)N[C@@H](CCC(=O)O)C(=O)O)cc3)cnc2[nH]1` [Folic acid] registered a nuclei count of 102.

`CC(=O)N[C@@H](CC(C)C)C(=O)O` [N-Acetyl-L-leucine] yielded a nuclei count of 107.

Consider `Nc1nc(Cl)nc2c1ncn2[C@@H]1O[C@H](CO)[C@@H](O)[C@@H]1F` [Clofarabine], for which the nuclei count turned out to be 54.8.

In turn, `Cc1cc(C)c(N(Cc2ccccc2)S(=O)(=O)c2ccc(OCCNC(=O)c3cc4ccccc4o3)cc2)c(C(=O)NO)c1` registered a nuclei count of 94.5.

`COc1ccc(-c2cc(=O)c3c(O)cc(O)cc3o2)cc1O` [Diosmetin (Luteolin 4-methyl ether)] gave a nuclei count of 96.1.

The molecule `CN(C)Cc1c(C(=O)NCCOc2ccc(C(=O)NO)cc2)oc2ccccc12` registered a nuclei count of 28.6.

`Nc1nc(=S)c2ncn([C@@H]3O[C@H](CO)[C@@H](O)[C@H]3O)c2[nH]1` [Thioguanosine] showed a nuclei count of 50.1.

As for `O=C1CN2Cc3c(ccc(Cl)c3Cl)N=C2N1` [Anagrelide HCl], the nuclei count was determined as 102.

With `C[C@H](NC(=O)c1sccc1OCc1ccc(Cl)cc1)c1ccccc1`, the nuclei count came out at 101.

As for `CO[C@H]1/C=C/O[C@@]2(C)Oc3c(C)c(O)c4c(c3C2=O)C2=NC3(CCN(CC(C)C)CC3)NC2=C(NC(=O)/C(C)=C\C=C\[C@H](C)[C@H](O)[C@@H](C)[C@@H](O)[C@@H](C)[C@H](OC(C)=O)[C@@H]1C)C4=O` [Rifabutin], the nuclei count was found to be 103.

Turning to `CO[C@H]1/C=C/O[C@@]2(C)Oc3c(C)c(O)c4c(c3C2=O)C2=NC3(CCN(CC(C)C)CC3)NC2=C(NC(=O)/C(C)=C\C=C\[C@H](C)[C@H](O)[C@@H](C)[C@@H](O)[C@@H](C)[C@H](OC(C)=O)[C@@H]1C)C4=O` [Rifabutin (Mycobutin)], the nuclei count amounted to 107.

On to `O=c1cc(-c2ccc(O)cc2)oc2cc(O)cc(O)c12` [Apigenin], for which the nuclei count turned out to be 95.3 ± 2.9.

Turning to `c1cnc2cc3c(cc2n1)[C@@H]1CNC[C@H]3C1` [Varenicline tartrate], the nuclei count worked out at 106.

Take `C[C@@H](N)[C@H]1CC[C@H](C(=O)Nc2ccncc2)CC1`: the nuclei count is 106 and 101.

Regarding `O=C(Cn1ccnc1[N+](=O)[O-])NCCO` [Etanidazole], the nuclei count was determined as 76.9.

In the case of `CCc1cc(C(C)=O)c(O)cc1OCCCCCC(C)(C)c1nn[nH]n1`, the nuclei count stood at 98.6.

For `COc1c(O[C@@H]2O[C@H](CO)[C@@H](O)[C@H](O)[C@H]2O)cc2c(c1OC)-c1ccc(SC)c(=O)cc1[C@@H](NC(C)=O)CC2` [Thiocolchicoside], the nuclei count was 113.

Turning to `O=C(CCCCCCNC(=O)c1cnc(N(c2ccccc2)c2ccccc2)nc1)NO` [Rocilinostat (ACY-1215)], the nuclei count turned out to be 47.1.

`O=c1ncccn1[C@@H]1O[C@H](CO)[C@@H](O)[C@H]1O` [Zebularine] yielded a nuclei count of 99.3 ± 1.6.

As for `CN(C)CCN(Cc1cccs1)c1ccccn1` [Methapyrilene hydrochloride], the nuclei count was determined as 115.

`CC(C)n1nc(-c2cc3cc(O)ccc3[nH]2)c2c(N)ncnc21` [Torkinib (PP242)] displayed a nuclei count of 77.5.

`NC(=O)N1c2ccccc2C=Cc2ccccc21` [Carbamazepine]: the nuclei count was 112.

`N#Cc1ccccc1OCC(O)CNCCNC(=O)Nc1ccccc1` (centres undefined) yielded a nuclei count of 95.5.

`CNc1nc(Nc2cnn([C@H]3CCN(C4COC4)C[C@@H]3F)c2Cl)ncc1C(F)(F)F` registered a nuclei count of 99.9.

The molecule `Clc1ccc(C(Cn2ccnc2)OCc2c(Cl)cccc2Cl)c(Cl)c1` (centres undefined) [Isoconazole] gave a nuclei count of 104.

In turn, `CC(=O)c1ccc(S(=O)(=O)NC(=O)NC2CCCCC2)cc1` [Acetohexamide] yielded a nuclei count of 104.

These data come from the supplement of paper PMC8183993.
